# Source: the supplement of paper PMC8728848
# The other results are listed elsewhere or left out.
# Columns and labels:
# Experiment in all cases: glycan array binding signal (z-score within array); higher = stronger binding
# Details in all cases: glycan notation: IUPAC condensed, linker removed
# [1] = target: Gal(b1-4)GlcNAc(b1-3)Gal(b1-4)GlcNAc(b1-2)Man(a1-3)[Gal(b1-4)GlcNAc(b1-3)Gal(b1-4)GlcNAc(b1-2)Man(a1-6)]Man(b1-4)GlcNAc(b1-4)[Fuc(a1-6)]GlcNAc
# Method in brief: (§1)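 Glycan array data were curated from 3228 arrays in the Consortium for Functional Glycomics database and kept only where the protein sequence was available. Glycan names were converted to IUPAC-condensed notation, and columns mapping to the same glycan were averaged. The binding signal is a within-array Z-score, averaged across arrays of the same protein sequence at different concentrations or buffers and across linkers. Negative Z-scores can be read as non-binding.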
# [2] = target: Gal(b1-4)GlcNAc(b1-3)Gal(b1-4)GlcNAc(b1-2)[Gal(b1-4)GlcNAc(b1-3)Gal(b1-4)GlcNAc(b1-6)]Man(a1-6)[Gal(b1-4)GlcNAc(b1-3)Gal(b1-4)GlcNAc(b1-2)Man(a1-3)]Man(b1-4)GlcNAc(b1-4)GlcNAc
# Method in brief: as §1
# [3] = target: Gal(b1-4)GlcNAc(b1-3)Gal(b1-4)GlcNAc(b1-2)[Gal(b1-4)GlcNAc(b1-3)Gal(b1-4)GlcNAc(b1-6)]Man(a1-6)[Gal(b1-4)GlcNAc(b1-3)Gal(b1-4)GlcNAc(b1-2)Man(a1-3)]Man(b1-4)GlcNAc(b1-4)[Fuc(a1-6)]GlcNAc
# Method in brief: as §1
# [4] = target: Gal(b1-4)GlcNAc(b1-3)Gal(b1-4)GlcNAc(b1-3)Gal(b1-4)GlcNAc
# Method in brief: as §1
# [5] = target: Gal(b1-4)GlcNAc(b1-3)Gal(b1-4)GlcNAc(b1-3)Gal(b1-4)GlcNAc(b1-2)Man(a1-3)[Gal(b1-4)GlcNAc(b1-3)Gal(b1-4)GlcNAc(b1-3)Gal(b1-4)GlcNAc(b1-2)Man(a1-6)]Man(b1-4)GlcNAc(b1-4)GlcNAc
# Method in brief: as §1
# [6] = target: Gal(b1-4)GlcNAc(b1-3)Gal(b1-4)GlcNAc(b1-3)Gal(b1-4)GlcNAc(b1-2)Man(a1-3)[Gal(b1-4)GlcNAc(b1-3)Gal(b1-4)GlcNAc(b1-3)Gal(b1-4)GlcNAc(b1-2)Man(a1-6)]Man(b1-4)GlcNAc(b1-4)[Fuc(a1-6)]GlcNAc
# Method in brief: as §1
# [7] = target: Gal(b1-4)GlcNAc(b1-3)Gal(b1-4)GlcNAc(b1-3)Gal(b1-4)GlcNAc(b1-2)[Gal(b1-4)GlcNAc(b1-3)Gal(b1-4)GlcNAc(b1-3)Gal(b1-4)GlcNAc(b1-6)]Man(a1-6)[Gal(b1-4)GlcNAc(b1-3)Gal(b1-4)GlcNAc(b1-3)Gal(b1-4)GlcNAc(b1-2)Man(a1-3)]Man(b1-4)GlcNAc(b1-4)[Fuc(a1-6)]GlcNAc
# Method in brief: as §1
# [8] = target: Gal(b1-4)GlcNAc(b1-3)Gal(b1-4)GlcNAc(b1-3)Gal(b1-4)GlcNAc(b1-3)Gal(b1-4)GlcNAc(b1-2)Man(a1-3)[Gal(b1-4)GlcNAc(b1-3)Gal(b1-4)GlcNAc(b1-3)Gal(b1-4)GlcNAc(b1-3)Gal(b1-4)GlcNAc(b1-2)Man(a1-6)]Man(b1-4)GlcNAc(b1-4)GlcNAc
# Method in brief: as §1
# [9] = target: Gal(b1-4)GlcNAc(b1-3)Gal(b1-4)GlcNAc(b1-3)Gal(b1-4)GlcNAc(b1-3)Gal(b1-4)GlcNAc(b1-2)Man(a1-3)[Gal(b1-4)GlcNAc(b1-3)Gal(b1-4)GlcNAc(b1-3)Gal(b1-4)GlcNAc(b1-3)Gal(b1-4)GlcNAc(b1-2)Man(a1-6)]Man(b1-4)GlcNAc(b1-4)[Fuc(a1-6)]GlcNAc
# Method in brief: as §1
# [10] = target: Gal(b1-4)GlcNAc(b1-3)Gal(b1-4)GlcNAc(b1-3)Gal(b1-4)GlcNAc(b1-3)Gal(b1-4)GlcNAc(b1-2)[Gal(b1-4)GlcNAc(b1-3)Gal(b1-4)GlcNAc(b1-3)Gal(b1-4)GlcNAc(b1-3)Gal(b1-4)GlcNAc(b1-6)]Man(a1-6)[Gal(b1-4)GlcNAc(b1-3)Gal(b1-4)GlcNAc(b1-3)Gal(b1-4)GlcNAc(b1-3)Gal(b1-4)GlcNAc(b1-2)Man(a1-3)]Man(b1-4)GlcNAc(b1-4)[Fuc(a1-6)]GlcNAc
# Method in brief: as §1
# [11] = target: Gal(b1-4)GlcNAc(b1-3)Gal(b1-4)GlcNAc(b1-3)Gal(b1-4)GlcNAc(b1-3)Gal(b1-4)GlcNAc(b1-3)Gal(b1-4)GlcNAc(b1-2)Man(a1-3)[Gal(b1-4)GlcNAc(b1-3)Gal(b1-4)GlcNAc(b1-3)Gal(b1-4)GlcNAc(b1-3)Gal(b1-4)GlcNAc(b1-3)Gal(b1-4)GlcNAc(b1-2)Man(a1-6)]Man(b1-4)GlcNAc(b1-4)GlcNAc
# Method in brief: as §1
# [12] = target: Gal(b1-4)GlcNAc(b1-3)Gal(b1-4)GlcNAc(b1-3)Gal(b1-4)GlcNAc(b1-3)Gal(b1-4)GlcNAc(b1-3)Gal(b1-4)GlcNAc(b1-2)Man(a1-3)[Gal(b1-4)GlcNAc(b1-3)Gal(b1-4)GlcNAc(b1-3)Gal(b1-4)GlcNAc(b1-3)Gal(b1-4)GlcNAc(b1-3)Gal(b1-4)GlcNAc(b1-2)Man(a1-6)]Man(b1-4)GlcNAc(b1-4)[Fuc(a1-6)]GlcNAc
# Method in brief: as §1
# [13] = target: Gal(b1-4)GlcNAc(b1-3)Gal(b1-4)GlcNAc(b1-3)Gal(b1-4)GlcNAc(b1-3)Gal(b1-4)GlcNAc(b1-3)Gal(b1-4)GlcNAc(b1-2)[Gal(b1-4)GlcNAc(b1-3)Gal(b1-4)GlcNAc(b1-3)Gal(b1-4)GlcNAc(b1-3)Gal(b1-4)GlcNAc(b1-3)Gal(b1-4)GlcNAc(b1-6)]Man(a1-6)[Gal(b1-4)GlcNAc(b1-3)Gal(b1-4)GlcNAc(b1-3)Gal(b1-4)GlcNAc(b1-3)Gal(b1-4)GlcNAc(b1-3)Gal(b1-4)GlcNAc(b1-2)Man(a1-3)]Man(b1-4)GlcNAc(b1-4)[Fuc(a1-6)]GlcNAc
# Method in brief: as §1
# [14] = target: Gal(b1-4)GlcNAc(b1-3)Gal(b1-4)GlcNAc(b1-3)Gal(b1-4)GlcNAc(b1-3)Gal(b1-4)GlcNAc(b1-3)Gal(b1-4)GlcNAc(b1-3)Gal(b1-4)GlcNAc(b1-2)Man(a1-3)[Gal(b1-4)GlcNAc(b1-3)Gal(b1-4)GlcNAc(b1-3)Gal(b1-4)GlcNAc(b1-3)Gal(b1-4)GlcNAc(b1-3)Gal(b1-4)GlcNAc(b1-3)Gal(b1-4)GlcNAc(b1-2)Man(a1-6)]Man(b1-4)GlcNAc(b1-4)GlcNAc
# Method in brief: as §1
# [15] = target: Gal(b1-4)GlcNAc(b1-3)Gal(b1-4)GlcNAc(b1-3)GalNAc
# Method in brief: as §1
# [16] = target: Gal(b1-4)GlcNAc(b1-3)Gal(b1-4)GlcNAc(b1-3)[Gal(b1-4)GlcNAc(b1-3)Gal(b1-4)GlcNAc(b1-6)]GalNAc
# Method in brief: as §1
# [17] = target: Gal(b1-4)GlcNAc(b1-3)Gal(b1-4)GlcNAc(b1-6)[Gal(b1-3)]GalNAc
# Method in brief: as §1
# [18] = target: Gal(b1-4)GlcNAc(b1-3)Gal(b1-4)[Fuc(a1-3)]GlcNAc(b1-3)Gal(b1-4)[Fuc(a1-3)]GlcNAc
# Method in brief: as §1
# [19] = target: Gal(b1-4)GlcNAc(b1-3)GalNAc
# Method in brief: as §1
# [20] = target: Gal(b1-4)GlcNAc(b1-3)[Fuc(a1-3)GlcNAc(b1-6)]Gal(b1-4)Glc
# Method in brief: as §1
# [21] = target: Gal(b1-4)GlcNAc(b1-3)[Gal(b1-4)GlcNAc(b1-6)]Gal(b1-4)GlcNAc
# Method in brief: as §1
# [22] = target: Gal(b1-4)GlcNAc(b1-3)[GlcNAc(b1-6)]Gal(b1-4)GlcNAc
# Method in brief: as §1
# [23] = target: Gal(b1-4)GlcNAc(b1-6)Gal(b1-4)GlcNAc
# Method in brief: as §1
# [24] = target: Gal(b1-4)GlcNAc(b1-6)GalNAc
# Method in brief: as §1
# [25] = target: Gal(b1-4)GlcNAc(b1-6)[Gal(b1-3)]GalNAc
# Method in brief: as §1
# [26] = target: Gal(b1-4)GlcNAc(b1-6)[Gal(b1-4)GlcNAc(b1-3)]GalNAc
# Method in brief: as §1
# [27] = target: Gal(b1-4)GlcNAc6P
# Method in brief: as §1
# [28] = target: Gal(b1-6)Gal
# Method in brief: as §1
# [29] = target: Gal3S(b1-3)GalNAc
# Method in brief: as §1
# [30] = target: Gal3S(b1-3)GlcNAc
# Method in brief: as §1
# [31] = target: Gal3S(b1-3)[Fuc(a1-4)]GlcNAc
# Method in brief: as §1
# [32] = target: Gal3S(b1-4)Glc
# Method in brief: as §1
# [33] = target: Gal3S(b1-4)Glc6S
# Method in brief: as §1
# [34] = target: Gal3S(b1-4)GlcNAc
# Method in brief: as §1
# [35] = target: Gal3S(b1-4)[Fuc(a1-3)]Glc6S
# Method in brief: as §1
# [36] = target: Gal3S(b1-4)[Fuc(a1-3)]GlcNAc
# Method in brief: as §1
# [37] = target: Gal3S(b1-4)[Fuc(a1-3)]GlcNAc6S
# Method in brief: as §1
# [38] = target: Gal3S4S(b1-4)GlcNAc
# Method in brief: as §1
# [39] = target: Gal3S6S(b1-4)GlcNAc
# Method in brief: as §1
# [40] = target: Gal3S6S(b1-4)GlcNAc6S
# Method in brief: as §1
# [41] = target: Gal4S(b1-4)GlcNAc
# Method in brief: as §1
# [42] = target: Gal4S6S(b1-4)GlcNAc
# Method in brief: as §1
# [43] = target: Gal6P(b1-4)GlcNAc
# Method in brief: as §1
# [44] = target: Gal6S(b1-3)GlcNAc
# Method in brief: as §1
# [45] = target: Gal6S(b1-3)GlcNAc6S
# Method in brief: as §1
binder,measurement,setting,value
CML1 (Coprinopsis cinerea) (protein) MAIFHTGSELFIITRGPGKLTLLTWGGLNNLRSVIGAIPTENTGVTKWAVSFSHNYTRFSFIWEGQGEACYQIGNGLTRSPVGRSWSSSSTIHWGSSTVITEDVTSVVPGAVNRDKVTTAYALPDNL,glycan array binding signal (z-score),[1],-0.313
same,glycan array binding signal (z-score),[2],-0.351
same,glycan array binding signal (z-score),[3],-0.313
same,glycan array binding signal (z-score),[4],-0.297
same,glycan array binding signal (z-score),[5],-0.318
same,glycan array binding signal (z-score),[6],-0.285
same,glycan array binding signal (z-score),[7],-0.29
same,glycan array binding signal (z-score),[8],-0.304
same,glycan array binding signal (z-score),[9],-0.28
same,glycan array binding signal (z-score),[10],-0.289
same,glycan array binding signal (z-score),[11],-0.297
same,glycan array binding signal (z-score),[12],-0.302
same,glycan array binding signal (z-score),[13],-0.257
same,glycan array binding signal (z-score),[14],-0.303
same,glycan array binding signal (z-score),[15],-0.32
same,glycan array binding signal (z-score),[16],-0.323
same,glycan array binding signal (z-score),[17],-0.343
same,glycan array binding signal (z-score),[18],0.275
same,glycan array binding signal (z-score),[19],-0.334
same,glycan array binding signal (z-score),[20],-0.262
same,glycan array binding signal (z-score),[21],-0.328
same,glycan array binding signal (z-score),[22],-0.361
same,glycan array binding signal (z-score),[23],-0.341
same,glycan array binding signal (z-score),[24],-0.323
same,glycan array binding signal (z-score),[25],-0.352
same,glycan array binding signal (z-score),[26],-0.336
same,glycan array binding signal (z-score),[27],-0.341
same,glycan array binding signal (z-score),[28],-0.342
same,glycan array binding signal (z-score),[29],-0.335
same,glycan array binding signal (z-score),[30],-0.34
same,glycan array binding signal (z-score),[31],3.48
same,glycan array binding signal (z-score),[32],-0.352
same,glycan array binding signal (z-score),[33],-0.346
same,glycan array binding signal (z-score),[34],-0.325
same,glycan array binding signal (z-score),[35],2.82
same,glycan array binding signal (z-score),[36],3.35
same,glycan array binding signal (z-score),[37],-0.342
same,glycan array binding signal (z-score),[38],-0.342
same,glycan array binding signal (z-score),[39],-0.312
same,glycan array binding signal (z-score),[40],-0.288
same,glycan array binding signal (z-score),[41],-0.34
same,glycan array binding signal (z-score),[42],-0.333
same,glycan array binding signal (z-score),[43],-0.339
same,glycan array binding signal (z-score),[44],-0.325
same,glycan array binding signal (z-score),[45],-0.336
